# Results: the supplement of paper PMC8728848
# The other results are listed elsewhere or left out.
# B1: RfpB (Mycobacterium tuberculosum), O05594 (protein)
# chain: MAAGLVTASMSLSTAVAHAGPSPNWDAVAQCESGGNWAANTGNGKYGGLQFKPATWAAFGGVGNPAAASREQQIAVANRVLAEQGLDAWPTCGAASGLPIALWSKPAQGIKHAGPSPNWDAVAQCESGGNWAANTGNGKYGGLQFKPATWAAFGGVGNPAAASREQQIAVANRVLAEQGLDAWPTCGA
# Columns and labels:
# Assay in all cases: glycan array binding signal (z-score within array); higher = stronger binding
# Settings in all cases: glycan notation: IUPAC condensed, linker removed
# GlcNAc3Prop(b1-4)GlcNAc = molecular target: GlcNAc3Prop(b1-4)GlcNAc
# Summary of the method: (§1)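 The binding signal is a Z-score computed within each array and averaged over linkers. Arrays of the same protein sequence at different concentrations or buffers were also averaged together. Data originate from 3228 arrays in the Consortium for Functional Glycomics database, kept only where the protein sequence was available.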
# Kdn(a2-3)Gal(b1-3)GlcNAc = molecular target: Kdn(a2-3)Gal(b1-3)GlcNAc
# Summary of the method: as §1
# Kdn(a2-3)Gal(b1-4)GlcNAc = molecular target: Kdn(a2-3)Gal(b1-4)GlcNAc
# Summary of the method: as §1
# [1] = molecular target: Man(a1-2)Man(a1-2)Man(a1-3)Man
# Summary of the method: as §1
# [2] = molecular target: Man(a1-2)Man(a1-2)Man(a1-6)[Man(a1-3)]Man
# Summary of the method: as §1
# Man(a1-2)Man(a1-3)Man = molecular target: Man(a1-2)Man(a1-3)Man
# Summary of the method: as §1
# [3] = molecular target: Man(a1-2)Man(a1-3)[Man(a1-2)Man(a1-6)]Man
# Summary of the method: as §1
# [4] = molecular target: Man(a1-2)Man(a1-3)[Man(a1-2)Man(a1-6)]Man(a1-6)[Man(a1-2)Man(a1-2)Man(a1-3)]Man
# Summary of the method: as §1
# [5] = molecular target: Man(a1-2)Man(a1-3)[Man(a1-2)Man(a1-6)]Man(a1-6)[Man(a1-2)Man(a1-2)Man(a1-3)]Man(b1-4)GlcNAc(b1-4)GlcNAc
# Summary of the method: as §1
# [6] = molecular target: Man(a1-2)Man(a1-3)[Man(a1-6)]Man(a1-6)[Man(a1-2)Man(a1-3)]Man(b1-4)GlcNAc(b1-4)GlcNAc
# Summary of the method: as §1
# [7] = molecular target: Man(a1-2)Man(a1-6)[Man(a1-3)]Man(a1-6)[Man(a1-2)Man(a1-2)Man(a1-3)]Man
# Summary of the method: as §1
# [8] = molecular target: Man(a1-2)Man(a1-6)[Man(a1-3)]Man(a1-6)[Man(a1-2)Man(a1-2)Man(a1-3)]Man(b1-4)GlcNAc(b1-4)GlcNAc
# Summary of the method: as §1
# Man(a1-3)[Man(a1-6)]Man = molecular target: Man(a1-3)[Man(a1-6)]Man
# Summary of the method: as §1
# [9] = molecular target: Man(a1-3)[Man(a1-6)]Man(a1-6)[Man(a1-2)Man(a1-3)]Man(b1-4)GlcNAc(b1-4)GlcNAc
# Summary of the method: as §1
# [10] = molecular target: Man(a1-3)[Man(a1-6)]Man(a1-6)[Man(a1-3)]Man
# Summary of the method: as §1
# [11] = molecular target: Man(a1-3)[Man(a1-6)]Man(a1-6)[Man(a1-3)]Man(b1-4)GlcNAc(b1-4)GlcNAc
# Summary of the method: as §1
# [12] = molecular target: Man(a1-3)[Man(a1-6)]Man(b1-4)GlcNAc(b1-4)GlcNAc
# Summary of the method: as §1
# Man(a1-6)Man = molecular target: Man(a1-6)Man
# Summary of the method: as §1
# Man(b1-4)GlcNAc = molecular target: Man(b1-4)GlcNAc
# Summary of the method: as §1
# Neu5Ac(a2-3)Gal = molecular target: Neu5Ac(a2-3)Gal
# Summary of the method: as §1
# [13] = molecular target: Neu5Ac(a2-3)Gal(b1-3)GalNAc
# Summary of the method: as §1
# [14] = molecular target: Neu5Ac(a2-3)Gal(b1-3)GalNAc(b1-3)Gal(a1-4)Gal(b1-4)Glc
# Summary of the method: as §1
# [15] = molecular target: Neu5Ac(a2-3)Gal(b1-3)GalNAc(b1-3)Gal(b1-4)GlcNAc
# Summary of the method: as §1
# [16] = molecular target: Neu5Ac(a2-3)Gal(b1-3)GalNAc(b1-4)[Neu5Ac(a2-3)]Gal(b1-4)Glc
# Summary of the method: as §1
# [17] = molecular target: Neu5Ac(a2-3)Gal(b1-3)GalNAc6S
# Summary of the method: as §1
# [18] = molecular target: Neu5Ac(a2-3)Gal(b1-3)GlcNAc
# Summary of the method: as §1
# [19] = molecular target: Neu5Ac(a2-3)Gal(b1-3)GlcNAc(b1-3)Gal(b1-3)GlcNAc
# Summary of the method: as §1
# [20] = molecular target: Neu5Ac(a2-3)Gal(b1-3)GlcNAc6S
# Summary of the method: as §1
# [21] = molecular target: Neu5Ac(a2-3)Gal(b1-3)[Fuc(a1-4)]GlcNAc
# Summary of the method: as §1
# [22] = molecular target: Neu5Ac(a2-3)Gal(b1-3)[Fuc(a1-4)]GlcNAc(b1-3)Gal(b1-4)[Fuc(a1-3)]GlcNAc
# Summary of the method: as §1
# [23] = molecular target: Neu5Ac(a2-3)Gal(b1-3)[Neu5Ac(a2-3)Gal(b1-4)]GlcNAc
# Summary of the method: as §1
# [24] = molecular target: Neu5Ac(a2-3)Gal(b1-3)[Neu5Ac(a2-6)]GalNAc
# Summary of the method: as §1
# Neu5Ac(a2-3)Gal(b1-4)Glc = molecular target: Neu5Ac(a2-3)Gal(b1-4)Glc
# Summary of the method: as §1
# [25] = molecular target: Neu5Ac(a2-3)Gal(b1-4)GlcNAc
# Summary of the method: as §1
# [26] = molecular target: Neu5Ac(a2-3)Gal(b1-4)GlcNAc(b1-2)Man(a1-3)[GlcNAc(b1-2)Man(b1-4)GlcNAc(b1-2)Man(a1-6)]Man(b1-4)GlcNAc(b1-4)GlcNAc
# Summary of the method: as §1
# [27] = molecular target: Neu5Ac(a2-3)Gal(b1-4)GlcNAc(b1-2)Man(a1-3)[Neu5Ac(a2-6)Gal(b1-4)GlcNAc(b1-2)Man(a1-6)]Man(b1-4)GlcNAc(b1-4)GlcNAc
# Summary of the method: as §1
# [28] = molecular target: Neu5Ac(a2-3)Gal(b1-4)GlcNAc(b1-3)Gal(b1-3)GlcNAc
# Summary of the method: as §1
# [29] = molecular target: Neu5Ac(a2-3)Gal(b1-4)GlcNAc(b1-3)Gal(b1-4)GlcNAc
# Summary of the method: as §1
# [30] = molecular target: Neu5Ac(a2-3)Gal(b1-4)GlcNAc(b1-3)Gal(b1-4)GlcNAc(b1-3)Gal(b1-4)GlcNAc
# Summary of the method: as §1
# [31] = molecular target: Neu5Ac(a2-3)Gal(b1-4)GlcNAc(b1-3)Gal(b1-4)[Fuc(a1-3)]GlcNAc
# Summary of the method: as §1
# [32] = molecular target: Neu5Ac(a2-3)Gal(b1-4)GlcNAc(b1-6)[Gal(b1-3)]GalNAc
# Summary of the method: as §1
# [33] = molecular target: Neu5Ac(a2-3)Gal(b1-4)GlcNAc(b1-6)[Neu5Ac(a2-3)Gal(b1-3)]GalNAc
# Summary of the method: as §1
# [34] = molecular target: Neu5Ac(a2-3)Gal(b1-4)GlcNAc6S
# Summary of the method: as §1
# [35] = molecular target: Neu5Ac(a2-3)Gal(b1-4)[Fuc(a1-3)]GlcNAc
# Summary of the method: as §1
binder,measurement,setting,value
B1,glycan array binding signal (z-score),GlcNAc3Prop(b1-4)GlcNAc,0.587
same,glycan array binding signal (z-score),Kdn(a2-3)Gal(b1-3)GlcNAc,-0.449
same,glycan array binding signal (z-score),Kdn(a2-3)Gal(b1-4)GlcNAc,-0.23
same,glycan array binding signal (z-score),[1],0.811
same,glycan array binding signal (z-score),[2],-0.264
same,glycan array binding signal (z-score),Man(a1-2)Man(a1-3)Man,0.119
same,glycan array binding signal (z-score),[3],0.412
same,glycan array binding signal (z-score),[4],-0.097
same,glycan array binding signal (z-score),[5],-0.555
same,glycan array binding signal (z-score),[6],0.343
same,glycan array binding signal (z-score),[7],0.333
same,glycan array binding signal (z-score),[8],-0.426
same,glycan array binding signal (z-score),Man(a1-3)[Man(a1-6)]Man,9.95
same,glycan array binding signal (z-score),[9],-0.606
same,glycan array binding signal (z-score),[10],0.294
same,glycan array binding signal (z-score),[11],0.289
same,glycan array binding signal (z-score),[12],0.505
same,glycan array binding signal (z-score),Man(a1-6)Man,-0.06
same,glycan array binding signal (z-score),Man(b1-4)GlcNAc,-0.558
same,glycan array binding signal (z-score),Neu5Ac(a2-3)Gal,-0.209
same,glycan array binding signal (z-score),[13],-0.19
same,glycan array binding signal (z-score),[14],-0.099
same,glycan array binding signal (z-score),[15],-0.13
same,glycan array binding signal (z-score),[16],4.02
same,glycan array binding signal (z-score),[17],0.036
same,glycan array binding signal (z-score),[18],0.417
same,glycan array binding signal (z-score),[19],-0.552
same,glycan array binding signal (z-score),[20],-0.709
same,glycan array binding signal (z-score),[21],-0.478
same,glycan array binding signal (z-score),[22],-0.316
same,glycan array binding signal (z-score),[23],-0.141
same,glycan array binding signal (z-score),[24],-0.254
same,glycan array binding signal (z-score),Neu5Ac(a2-3)Gal(b1-4)Glc,-0.155
same,glycan array binding signal (z-score),[25],-0.034
same,glycan array binding signal (z-score),[26],-0.209
same,glycan array binding signal (z-score),[27],-0.524
same,glycan array binding signal (z-score),[28],-0.23
same,glycan array binding signal (z-score),[29],-0.387
same,glycan array binding signal (z-score),[30],0.052
same,glycan array binding signal (z-score),[31],-0.469
same,glycan array binding signal (z-score),[32],-0.472
same,glycan array binding signal (z-score),[33],-0.548
same,glycan array binding signal (z-score),[34],1.6
same,glycan array binding signal (z-score),[35],-0.644
